# From PubChem BioAssay AID2528 (National Center for Advancing Translational Sciences (NCATS), 2010)
# Values joined by “and” are separate entries in the source; they are usually repeats but may differ in a detail not shown here. Identical values can stand only once. Hit rate of the full screen: of about 350,000 compounds, about 700 (0.2%) were called active. Calls come from the whole dose curve; as a rule, active = well fitted inhibition curve with a large enough effect; inconclusive = small, poorly fitted or top-dose-only effect; inactive = flat fitted curve, though single readings scatter. The list shows a part of the results, in another mix than the full data. More than one record can exist for a structure, and the calls need not agree.
# Molecular target: RecQ-like DNA helicase BLM (Homo sapiens) (UniProt P54132)
# Experiment: qHTS Assay for Inhibitors of Bloom's syndrome helicase (BLM); note: nearly all actives have a fitted effect of over 35% in size;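 for activity change, negative = inhibition: plate controls were vehicle for no effect and no enzyme for full effect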
# Details: recombinant BLM DNA unwinding, fluorescence dequenching; series mostly up to 56.1 µM; activity change, negative = inhibition: at the top concentration
# Potency is the fitted concentration of half-maximal effect.
# Chain of UniProt P54132 (P54132 whole entry, looked up): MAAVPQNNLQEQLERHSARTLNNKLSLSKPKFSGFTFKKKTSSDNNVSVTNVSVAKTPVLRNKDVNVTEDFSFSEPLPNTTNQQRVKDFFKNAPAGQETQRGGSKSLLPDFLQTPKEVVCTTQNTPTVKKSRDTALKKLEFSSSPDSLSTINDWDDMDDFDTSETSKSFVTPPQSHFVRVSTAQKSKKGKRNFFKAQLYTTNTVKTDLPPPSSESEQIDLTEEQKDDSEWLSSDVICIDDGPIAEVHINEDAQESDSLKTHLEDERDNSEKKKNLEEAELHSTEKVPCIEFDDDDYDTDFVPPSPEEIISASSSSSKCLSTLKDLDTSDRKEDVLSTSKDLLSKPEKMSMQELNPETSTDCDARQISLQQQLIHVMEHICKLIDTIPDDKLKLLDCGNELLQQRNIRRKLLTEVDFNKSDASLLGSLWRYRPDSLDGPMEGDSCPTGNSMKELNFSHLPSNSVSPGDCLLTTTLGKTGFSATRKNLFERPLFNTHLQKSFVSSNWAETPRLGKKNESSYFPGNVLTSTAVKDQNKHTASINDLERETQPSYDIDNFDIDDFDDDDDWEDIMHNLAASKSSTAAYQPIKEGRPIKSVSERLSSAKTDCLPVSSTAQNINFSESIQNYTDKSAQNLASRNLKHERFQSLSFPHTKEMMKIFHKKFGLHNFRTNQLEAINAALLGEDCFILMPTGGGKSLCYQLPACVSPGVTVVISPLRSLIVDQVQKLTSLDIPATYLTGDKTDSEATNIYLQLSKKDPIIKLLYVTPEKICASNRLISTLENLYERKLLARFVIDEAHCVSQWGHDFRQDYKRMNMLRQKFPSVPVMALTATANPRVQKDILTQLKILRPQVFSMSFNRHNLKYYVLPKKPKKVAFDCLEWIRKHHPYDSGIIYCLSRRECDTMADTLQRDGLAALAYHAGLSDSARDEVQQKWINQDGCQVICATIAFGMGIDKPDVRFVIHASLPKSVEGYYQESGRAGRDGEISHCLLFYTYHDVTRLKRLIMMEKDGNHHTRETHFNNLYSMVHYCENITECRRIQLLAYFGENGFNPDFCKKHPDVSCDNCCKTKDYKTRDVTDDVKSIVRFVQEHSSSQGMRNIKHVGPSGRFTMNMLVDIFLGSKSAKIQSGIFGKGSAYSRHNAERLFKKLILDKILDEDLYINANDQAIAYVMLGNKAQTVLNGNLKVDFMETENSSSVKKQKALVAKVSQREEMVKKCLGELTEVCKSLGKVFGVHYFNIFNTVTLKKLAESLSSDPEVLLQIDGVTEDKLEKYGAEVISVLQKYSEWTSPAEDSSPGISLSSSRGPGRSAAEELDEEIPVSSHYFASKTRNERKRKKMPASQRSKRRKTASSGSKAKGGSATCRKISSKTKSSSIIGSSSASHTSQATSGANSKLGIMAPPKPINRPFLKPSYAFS
SMILES,"activity change, negative = inhibition",Potency
C[N+]1(C)CCC(OC(=O)C(c2ccccc2)c2ccccc2)CC1,inactive: 3.43%,–
N[C@H](CCCP(=O)(O)O)C(=O)O,–,inactive
CN1C[C@H](C(=O)N[C@]2(C)O[C@]3(O)[C@H]4CCCN4C(=O)[C@H](Cc4ccccc4)N3C2=O)C[C@H]2c3cccc4[nH]cc(c34)C[C@@H]21,inactive: -2.53% [at 21.4 µM],–
CCCCC/C=C\C/C=C\C/C=C\C/C=C\CCCC(=O)NCCO,–,inactive
CC(C)(O)C1C2OC(=O)C1[C@]1(O)CC3O[C@@]34C(=O)OC2[C@@]14C (stereo not given in full),inactive: -11.4%,–
NC(=O)CN1CCCC1=O,–,inactive
CN1CC[C@@]2(C)c3cc(O)ccc3N(C)[C@@H]12,inactive: -6.48%,–
CC[N+](C)(C)c1cccc(O)c1,–,inactive
CCN1C[C@]2(C)CC[C@H](O)[C@@]34[C@@H]5CC6[C@@H](OC)C[C@@](O)([C@@H]5[C@@H]6O)[C@H](C[C@@H]23)[C@H]14,inactive: 4.1% [at 21.4 µM],–
CCCCCCCCCCCCCC(=O)OC1C(C)[C@@]2(O)C(C=C(CO)C[C@]3(O)C(=O)C(C)=C[C@H]23)[C@@H]2C(C)(C)[C@]12OC(C)=O (stereo not given in full),inactive: 0.433%,–
O=C1C(I)=CC(=C(c2cc(I)c(O)c(I)c2)c2ccccc2C(=O)O)C=C1I,–,active: 15.8 µM
NC(N)=NC(=O)c1nc(Cl)c(N)nc1N,–,inactive
CC(C)C[C@H]1C(=O)N2CCC[C@@H]2[C@]2(O)O[C@](NC(=O)[C@@H]3C=C4c5cccc6[nH]c(Br)c(c56)C[C@H]4N(C)C3)(C(C)C)C(=O)N12,inactive: -13.8%,–
COc1ccc(OC)c(N2C(=O)NC(=O)/C(=C/c3ccc([N+](=O)[O-])s3)C2=O)c1,–,active: 10 µM
S=C(NC1CCCCC1)N1CCC(c2cnc[nH]2)CC1,inactive: -0.687%,–
NC(N)=NOCC[C@H](N)C(=O)O,–,inactive
N[C@@H](Cn1oc(=O)[nH]c1=O)C(=O)O,inactive: 1.48%,–
CC(C)CNC(=O)c1c(N)n(Cc2ccc3c(c2)OCO3)c2nc3ccccc3nc12,–,active: 10 µM
CC[C@@H]1C(=O)OC[C@@H]1Cc1cncn1C,–,inactive
C=CCN1CC[C@]23c4c5ccc(O)c4O[C@H]2/C(=N/NC(=O)c2ccccc2)CC[C@@]3(O)[C@H]1C5,inactive: -3.29%,–
CC(=O)[C@]1(O)CCC2C3CCC4=CC(=O)CC[C@@]4(C)C3CC[C@]21C (stereo not given in full),inactive: -8.79%,–
CN1C[C@H](CNC(=O)OCc2ccccc2)C[C@H]2c3cccc4c3c(cn4C)C[C@@H]21,–,inactive
CNC(=O)Oc1ccc2c(c1)C1(C)CCN(C)C1N2C (stereo not given),inactive: 1.6%,–

SMILES,"activity change, negative = inhibition",Potency
C[C@@H]1O[C@@H](O[C@H]2C[C@@H](O)[C@]3(CO)[C@H]4[C@H](O)C[C@]5(C)[C@@H](C6COC(=O)C6)CC[C@]5(O)[C@@H]4CC[C@]3(O)C2)[C@H](O)[C@H](O)[C@H]1O (stereo not given in full),inactive: -1.31%,–
CCN1C[C@]2(C)CC[C@H](O)[C@@]34C5C[C@@H]6[C@@H](OC)C[C@@](O)(C5[C@H]6O)[C@@H](CC23)[C@@H]14 (stereo not given in full),inactive: 1.61%,–
C=CCN1CC[C@]23c4c5ccc(O)c4OC2C(=O)CC[C@]3(O)C1C5 (stereo not given in full),inactive: -1.09%,–
O=C1C=CC(=O)c2c(O)cccc21,–,active: 3.16 µM and active: 5.62 µM
Oc1cc2c(cc1O)[C@H]1c3ccccc3CN[C@@H]1CC2,inactive: -3.18%,–
CCCN(CCC)[C@@H]1CCc2ccc(O)cc2C1,inactive: 1.01%,–
CC1=NCCc2c1[nH]c1cc(O)ccc21,–,inactive
C[N+]1(C)C2CC(OC(=O)C(CO)c3ccccc3)CC1C1OC12 (stereo not given),inactive: 4.63%,–
CN1C[C@H](C(=O)N[C@]2(C)O[C@@]3(O)C4CCCN4C(=O)[C@H](Cc4ccccc4)N3C2=O)C[C@@H]2c3cccc4[nH]cc(c34)C[C@H]21 (stereo not given in full),–,inactive
CC(C)OCCCNC(=O)c1c(N)n(CC2CCCO2)c2nc3ccccc3nc12 (stereo not given),–,active: 5.01 µM
C/C(O)=C(/C#N)C(=O)Nc1cc(Br)ccc1Br,inactive: 3.46%,–
CC(C)CC1C(=O)N2CCCC2C2(O)O[C@@](NC(=O)C3C=C4c5cccc6[nH]c(Br)c(c56)CC4N(C)C3)(C(C)C)C(=O)N12 (stereo not given in full),inactive: -4.92%,–
C[C@H](N)[C@H](O)c1ccc(O)c(O)c1,inactive: -18% [at 21.4 µM],–
CC(C)N(CCC(C(N)=O)(c1ccccc1)c1ccccn1)C(C)C (stereo not given),–,inactive
CC1=CC(=O)c2c(O)cccc2C1=O,inactive: -17.7%,–
OC1CCCCC1N1CCC(c2ccccc2)CC1 (stereo not given),–,inactive
CCOc1cccc(N2C(=O)/C(=C/c3ccco3)C(=O)NC2=S)c1,–,active: 28.2 µM
CCN(CC)c1ncnc2c1ncn2[C@@H]1O[C@@H](COP(=O)(O)OP(=O)(O)C(Br)(Br)P(=O)(O)O)[C@H](O)[C@H]1O,inactive: 7%,–
C=CCN1C[C@H](C)N([C@H](c2ccc(C(=O)N(CC)CC)cc2)c2cccc(OC)c2)C[C@H]1C,–,inactive
CNC(=O)Oc1ccc2c(c1)[C@@]1(C)CCN(C)C1N2C (stereo not given in full),–,inactive
NCC1O[C@@H](O[C@H]2C(O)C(O[C@@H]3C(O[C@H]4OC(CO)C(O)C(O)C4N)C(N)CC(N)[C@H]3O)O[C@@H]2CO)C(N)C(O)C1O (stereo not given in full),inactive: 43.5%,–
N[C@@]1(C(=O)O)CC[C@H](C(=O)O)C1,–,inactive
C=CCN1CCC2(C)c3cc(O)ccc3C[C@H]1[C@H]2C,inactive: 3.96%,–

SMILES,"activity change, negative = inhibition",Potency
C=C(C)[C@H]1CN[C@H](C(=O)O)[C@H]1CC(=O)O,–,inactive
CCOC(=O)c1ncn2c1CN(C)C(=O)c1cc(F)ccc1-2,–,inactive
O=NN(CCCl)C(=O)NCCCl,–,inactive
C[C@H](N)Cc1cnc[nH]1,inactive: 1.77%,–
Nc1nc(N)c2nc(CNc3ccc(C(=O)NC(CCC(=O)O)C(=O)O)cc3)cnc2n1 (stereo not given),inactive: -0.928%,–
Cc1ncc(CNC(=O)N(CCCl)N=O)c(N)n1,inactive: 4.35%,–
COc1ccc2[nH]cc(CCN)c2c1,–,inactive
CC[C@]1(O)C(=O)OCc2c1cc1n(c2=O)Cc2cc3ccccc3nc2-1,inactive: 4.17%,–
CCCCc1ccc(C(=O)O)nc1,–,inactive
CCN(CC)C(=O)N[C@@H]1C[C@@H]2c3cccc4[nH]cc(c34)C[C@H]2N(C)C1,inactive: -5.58%,–
C=CCN1CCC23c4c5ccc(O)c4O[C@H]2C(=O)CC[C@@]3(O)C1C5 (stereo not given in full),inactive: 6.48%,–
C[N+](C)(C)CC#CCOC(=O)Nc1cccc(Cl)c1,inactive: 0.921%,–
O=C1NCN(c2ccccc2)C12CCN(CC1COc3ccccc3O1)CC2 (stereo not given),inactive: -0.206%,–
Cc1c(C(=O)c2cccc3ccccc23)c2cccc3c2n1[C@H](CN1CCOCC1)CO3,inactive: -2.71%,–
CC[C@H]1C(=O)OC[C@H]1Cc1cncn1C,inactive: 4.51% [at 21.4 µM],–
NCCCCN=C(N)N,–,inactive
Cc1o[nH]c(=O)c1C[C@@H](N)C(=O)O,–,inactive
NC(=NCCC[C@H](N)C(=O)O)N[N+](=O)[O-],inactive: -3.08%,–
CC(CCc1ccccc1)NC(C)C(O)c1ccc(O)cc1 (stereo not given),–,inactive
CC[C@@]1(O)C(=O)OCc2c1cc1n(c2=O)Cc2cc3ccccc3nc2-1,–,inactive
CC(=O)N1CCN(c2ccc(OC[C@H]3CO[C@](Cn4ccnc4)(c4ccc(Cl)cc4Cl)O3)cc2)CC1,–,inactive
CCCC[N+]1(C)[C@@H]2CC(OC(=O)[C@H](CO)c3ccccc3)C[C@H]1[C@@H]1O[C@@H]12 (stereo not given in full),inactive: -6.94%,–
CN1CC[C@@]23CCCCC2C1Cc1ccc(O)cc13 (stereo not given in full),inactive: 1.9%,–

SMILES,"activity change, negative = inhibition",Potency
CCCCC/C=C\C/C=C\C/C=C\C/C=C\CCCC(=O)N(Cc1ccc(O)c(Cl)c1)Cc1ccc(O)c(Cl)c1,–,active: 31.6 µM
NCCc1cc(O)c(O)cc1O,inactive: -24.6%,–
Clc1cccc(N2CCNCC2)c1,–,inactive
CNC(=O)Oc1ccc2c(c1)[C@@]1(C)CCN(C)[C@@H]1N2C,–,inactive
CC(C)[C@@]1(NC(=O)[C@@H]2C[C@H]3c4cccc5[nH]cc(c45)C[C@@H]3N(C)C2)O[C@@]2(O)[C@H]3CCCN3C(=O)[C@H](Cc3ccccc3)N2C1=O,–,inactive
O=C(c1ccc2nc(-c3ccco3)c(-c3ccco3)nc2c1)N1CCC2(CC1)OCCO2,–,active: 28.2 µM
CC(=O)N1CCN(c2ccc(OCC3CO[C@@](Cn4ccnc4)(c4ccc(Cl)cc4Cl)O3)cc2)CC1 (stereo not given in full),inactive: 0.27%,–
CN1CCC(c2c[nH]c3ccc(O)cc23)CC1,inactive: -13.4%,–
CC(C)[C@@]1(NC(=O)[C@@H]2C[C@@H]3c4cccc5[nH]cc(c45)C[C@H]3N(C)C2)O[C@@]2(O)[C@@H]3CCCN3C(=O)[C@H](Cc3ccccc3)N2C1=O,–,inactive
NC[C@@H]1O[C@H](OC2[C@@H](CO)O[C@@H](OC3[C@H](O)[C@H](N)C[C@H](N)[C@H]3OC3O[C@H](CO)[C@@H](O)[C@H](O)[C@@H]3N)[C@H]2O)C(N)[C@H](O)[C@@H]1O (stereo not given in full),inactive: 3.18%,–
O=C(O)CCCc1ccc(N(CCCl)CCCl)cc1,–,inactive
c1ccc2c(c1)OC[C@@H](C1=NCCN1)O2,–,inactive
C[N+]1(C)[C@@H]2CC[C@H]1CC(OC(=O)[C@@H](CO)c1ccccc1)C2 (stereo not given in full),–,inactive
Cc1[nH]c2ccc(O)cc2c1CCN,inactive: -0.493%,–
COc1ccc(C(=O)N2CCCC2=O)cc1,–,inactive
CCCCCCCCCCCCCC(=O)O[C@@H]1[C@@H](C)[C@@]2(O)[C@@H](C=C(CO)C[C@]3(O)C(=O)C(C)=C[C@@H]23)[C@@H]2C(C)(C)[C@]12OC(C)=O,inactive: -14.3%,–
CC[C@@H](CO)NC(=O)[C@H]1C=C2c3cccc4[nH]cc(c34)C[C@H]2N(C)C1,inactive: -10.3%,–
CN(C)C(=O)C(CCN1CCC(O)(c2ccc(Cl)cc2)CC1)(c1ccccc1)c1ccccc1,–,inactive
CO[C@H]1CC=C2CCN3CCC4=C(CC(=O)OC4)[C@]23C1,inactive: 1.93%,–
NC[C@@H]1O[C@H](O[C@H]2[C@@H](O)[C@H](O[C@@H]3[C@@H](O)[C@H](N)C[C@H](N)[C@H]3O[C@H]3O[C@H](CO)[C@@H](O)[C@H](O)[C@H]3N)O[C@@H]2CO)[C@H](N)[C@@H](O)[C@@H]1O,inactive: -10%,–
COc1ccc(-n2nc(C(F)(F)F)cc2-c2ccc(Cl)cc2)cc1,inactive: -10%,–
